From ChEMBL document CHEMBL1961873, “Compounds: GSK PKIS; Assays: Nanosyn kinase panel” (2012)
For some of these results: Shown are results outside the selection of strong results, which stands elsewhere. The entries are a selection whose mix differs from that of the whole data set.

Tests used:
[1] = molecular target: Rho-associated protein kinase 1 (Homo sapiens) (UniProt Q13464); conditions: at 1 µM;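 note: reported values are mean percent inhibition of ROCK1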
[2] = molecular target: Rho-associated protein kinase 2 (Homo sapiens) (UniProt O75116); conditions: at 0.1 µM
[3] = molecular target: Rho-associated protein kinase 2 (Homo sapiens) (UniProt O75116); conditions: at 1 µM
[4] = molecular target: Ribosomal protein S6 kinase alpha-1 (Homo sapiens) (UniProt Q15418); conditions: at 0.1 µM
[5] = molecular target: Ribosomal protein S6 kinase alpha-1 (Homo sapiens) (UniProt Q15418); conditions: at 1 µM
[6] = molecular target: Ribosomal protein S6 kinase alpha-3 (Homo sapiens) (UniProt P51812); conditions: at 0.1 µM
[7] = molecular target: Ribosomal protein S6 kinase alpha-3 (Homo sapiens) (UniProt P51812); conditions: at 1 µM
[8] = molecular target: Ribosomal protein S6 kinase alpha-2 (Homo sapiens) (UniProt Q15349); conditions: at 0.1 µM
[9] = molecular target: Ribosomal protein S6 kinase alpha-2 (Homo sapiens) (UniProt Q15349); conditions: at 1 µM
[10] = molecular target: Ribosomal protein S6 kinase alpha-6 (Homo sapiens) (UniProt Q9UK32); conditions: at 0.1 µM
[11] = molecular target: Ribosomal protein S6 kinase alpha-6 (Homo sapiens) (UniProt Q9UK32); conditions: at 1 µM
[12] = molecular target: T1, Serine/threonine-protein kinase Sgk1 (Homo sapiens) (UniProt O00141); conditions: at 0.1 µM
T1 sequence (whole entry): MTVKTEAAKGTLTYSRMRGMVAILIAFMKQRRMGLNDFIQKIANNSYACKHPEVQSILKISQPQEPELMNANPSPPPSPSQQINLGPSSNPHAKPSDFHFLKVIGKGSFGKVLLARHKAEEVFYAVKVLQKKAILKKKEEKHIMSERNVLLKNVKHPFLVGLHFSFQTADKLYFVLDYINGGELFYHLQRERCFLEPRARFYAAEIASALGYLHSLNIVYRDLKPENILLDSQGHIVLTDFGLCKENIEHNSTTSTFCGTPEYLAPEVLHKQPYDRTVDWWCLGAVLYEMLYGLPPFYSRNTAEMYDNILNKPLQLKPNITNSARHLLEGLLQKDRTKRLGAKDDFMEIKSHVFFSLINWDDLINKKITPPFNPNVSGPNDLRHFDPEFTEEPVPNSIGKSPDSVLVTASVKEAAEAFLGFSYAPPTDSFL

[13] = molecular target: T2, Serine/threonine-protein kinase Sgk2 (Homo sapiens) (UniProt Q9HBY8); conditions: at 0.1 µM
T2 sequence (whole entry): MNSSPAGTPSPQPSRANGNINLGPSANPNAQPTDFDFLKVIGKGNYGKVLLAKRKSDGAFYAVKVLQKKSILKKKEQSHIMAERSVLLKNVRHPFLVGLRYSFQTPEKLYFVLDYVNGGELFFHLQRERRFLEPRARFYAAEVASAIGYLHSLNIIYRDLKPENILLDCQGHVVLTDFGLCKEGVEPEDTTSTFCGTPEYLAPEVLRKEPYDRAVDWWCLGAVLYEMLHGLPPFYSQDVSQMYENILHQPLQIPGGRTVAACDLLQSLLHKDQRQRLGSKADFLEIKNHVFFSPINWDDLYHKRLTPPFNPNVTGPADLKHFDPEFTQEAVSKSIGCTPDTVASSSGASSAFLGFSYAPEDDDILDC

[14] = molecular target: T2, Serine/threonine-protein kinase Sgk2 (Homo sapiens); conditions: at 1 µM
[15] = molecular target: T3, Serine/threonine-protein kinase Sgk3 (Homo sapiens) (UniProt Q96BR1); conditions: at 0.1 µM
T3 sequence (whole entry): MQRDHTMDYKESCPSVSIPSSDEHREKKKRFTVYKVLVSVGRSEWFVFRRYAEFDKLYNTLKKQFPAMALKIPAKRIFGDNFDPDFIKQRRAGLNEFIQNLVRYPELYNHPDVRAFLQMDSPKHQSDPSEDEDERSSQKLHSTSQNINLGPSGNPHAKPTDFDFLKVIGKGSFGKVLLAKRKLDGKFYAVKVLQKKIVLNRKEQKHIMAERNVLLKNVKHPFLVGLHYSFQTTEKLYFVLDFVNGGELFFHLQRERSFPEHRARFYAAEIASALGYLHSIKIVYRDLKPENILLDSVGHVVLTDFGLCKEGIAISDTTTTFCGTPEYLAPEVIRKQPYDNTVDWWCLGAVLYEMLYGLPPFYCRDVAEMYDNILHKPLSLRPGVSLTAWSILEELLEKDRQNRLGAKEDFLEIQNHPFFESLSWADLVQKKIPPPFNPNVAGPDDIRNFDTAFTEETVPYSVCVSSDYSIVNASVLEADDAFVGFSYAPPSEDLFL

[16] = molecular target: T3, Serine/threonine-protein kinase Sgk3 (Homo sapiens); conditions: at 1 µM
[17] = molecular target: 5'-AMP-activated protein kinase catalytic subunit alpha-1 (Homo sapiens) (UniProt Q13131); conditions: at 0.1 µM
[18] = molecular target: 5'-AMP-activated protein kinase catalytic subunit alpha-1 (Homo sapiens) (UniProt Q13131); conditions: at 1 µM
[19] = molecular target: 5'-AMP-activated protein kinase catalytic subunit alpha-2 (Homo sapiens) (UniProt P54646); conditions: at 0.1 µM;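 note: mean inhibition measured on the AMPK complex of alpha2, beta1 and gamma1 subunits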
[20] = molecular target: T1, Serine/threonine-protein kinase Sgk1 (Homo sapiens); conditions: at 1 µM

Sequence of UniProt Q15418 (Q15418 whole entry): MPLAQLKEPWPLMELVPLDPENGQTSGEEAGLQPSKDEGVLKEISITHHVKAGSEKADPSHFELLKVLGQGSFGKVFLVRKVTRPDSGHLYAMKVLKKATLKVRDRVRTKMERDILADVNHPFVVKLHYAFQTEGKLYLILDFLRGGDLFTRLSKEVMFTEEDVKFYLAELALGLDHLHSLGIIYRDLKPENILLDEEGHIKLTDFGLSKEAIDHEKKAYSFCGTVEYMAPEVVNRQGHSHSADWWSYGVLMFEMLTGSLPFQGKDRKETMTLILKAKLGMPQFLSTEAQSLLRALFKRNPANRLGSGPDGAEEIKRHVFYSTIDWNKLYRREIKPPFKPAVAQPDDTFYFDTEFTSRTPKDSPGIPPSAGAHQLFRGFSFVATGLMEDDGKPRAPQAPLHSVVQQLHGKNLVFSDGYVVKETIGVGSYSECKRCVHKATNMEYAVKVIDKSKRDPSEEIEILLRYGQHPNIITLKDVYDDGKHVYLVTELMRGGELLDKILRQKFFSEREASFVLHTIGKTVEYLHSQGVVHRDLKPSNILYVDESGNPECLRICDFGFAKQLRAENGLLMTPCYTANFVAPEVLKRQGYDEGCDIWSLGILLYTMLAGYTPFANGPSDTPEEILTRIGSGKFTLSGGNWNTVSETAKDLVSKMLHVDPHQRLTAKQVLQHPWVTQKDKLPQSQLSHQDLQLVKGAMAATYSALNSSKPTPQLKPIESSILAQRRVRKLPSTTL
Sequence of UniProt Q13131 (Q13131 whole entry, looked up): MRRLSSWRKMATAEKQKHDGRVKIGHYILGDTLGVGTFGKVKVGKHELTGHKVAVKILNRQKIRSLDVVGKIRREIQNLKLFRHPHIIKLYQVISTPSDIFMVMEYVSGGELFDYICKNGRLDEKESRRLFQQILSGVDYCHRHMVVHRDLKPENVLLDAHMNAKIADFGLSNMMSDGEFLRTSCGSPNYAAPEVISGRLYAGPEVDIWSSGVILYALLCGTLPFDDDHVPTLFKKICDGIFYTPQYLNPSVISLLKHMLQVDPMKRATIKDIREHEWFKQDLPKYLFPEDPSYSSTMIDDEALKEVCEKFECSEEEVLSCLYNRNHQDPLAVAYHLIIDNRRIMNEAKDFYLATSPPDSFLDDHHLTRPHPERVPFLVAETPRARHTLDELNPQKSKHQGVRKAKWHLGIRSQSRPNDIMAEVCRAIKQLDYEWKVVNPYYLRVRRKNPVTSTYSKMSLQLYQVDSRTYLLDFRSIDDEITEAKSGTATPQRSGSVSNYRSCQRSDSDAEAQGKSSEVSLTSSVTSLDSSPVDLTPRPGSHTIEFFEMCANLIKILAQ
Sequence of UniProt O75116 (O75116 whole entry, looked up): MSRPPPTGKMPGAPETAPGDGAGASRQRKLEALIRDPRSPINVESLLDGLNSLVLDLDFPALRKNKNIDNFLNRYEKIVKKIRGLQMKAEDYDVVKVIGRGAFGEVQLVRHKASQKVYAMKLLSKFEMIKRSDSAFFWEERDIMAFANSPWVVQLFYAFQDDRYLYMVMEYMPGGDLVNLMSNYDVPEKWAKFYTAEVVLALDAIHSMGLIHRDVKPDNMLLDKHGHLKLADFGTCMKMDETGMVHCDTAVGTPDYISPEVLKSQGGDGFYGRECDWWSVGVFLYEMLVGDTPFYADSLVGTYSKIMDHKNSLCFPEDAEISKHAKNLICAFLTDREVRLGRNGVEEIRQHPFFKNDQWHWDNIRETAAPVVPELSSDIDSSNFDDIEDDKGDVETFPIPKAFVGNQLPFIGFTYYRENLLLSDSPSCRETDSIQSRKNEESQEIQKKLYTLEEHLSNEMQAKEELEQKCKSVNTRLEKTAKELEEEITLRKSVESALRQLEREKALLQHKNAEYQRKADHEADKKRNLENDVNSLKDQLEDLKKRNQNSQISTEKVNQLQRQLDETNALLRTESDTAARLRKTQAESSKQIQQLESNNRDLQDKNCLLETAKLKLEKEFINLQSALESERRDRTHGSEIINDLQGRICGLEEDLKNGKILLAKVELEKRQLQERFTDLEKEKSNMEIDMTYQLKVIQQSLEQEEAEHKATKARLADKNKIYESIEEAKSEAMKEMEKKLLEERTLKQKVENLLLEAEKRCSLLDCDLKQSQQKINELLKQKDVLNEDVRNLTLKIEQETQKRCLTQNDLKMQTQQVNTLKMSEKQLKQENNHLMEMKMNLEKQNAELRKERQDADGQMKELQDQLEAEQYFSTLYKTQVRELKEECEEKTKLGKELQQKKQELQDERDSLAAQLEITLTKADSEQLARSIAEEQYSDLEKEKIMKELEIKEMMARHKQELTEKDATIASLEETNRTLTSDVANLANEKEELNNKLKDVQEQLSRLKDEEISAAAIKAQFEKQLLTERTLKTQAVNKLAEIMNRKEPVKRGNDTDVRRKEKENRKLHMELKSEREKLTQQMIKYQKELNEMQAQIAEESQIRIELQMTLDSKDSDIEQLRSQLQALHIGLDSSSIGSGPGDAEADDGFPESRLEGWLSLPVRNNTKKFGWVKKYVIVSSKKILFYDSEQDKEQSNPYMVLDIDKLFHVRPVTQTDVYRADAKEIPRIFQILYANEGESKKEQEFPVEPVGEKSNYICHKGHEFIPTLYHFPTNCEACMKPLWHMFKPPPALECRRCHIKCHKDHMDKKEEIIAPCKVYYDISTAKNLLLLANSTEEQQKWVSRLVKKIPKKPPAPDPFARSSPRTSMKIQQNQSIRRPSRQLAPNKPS
Sequence of UniProt Q13464 (Q13464 whole entry, looked up): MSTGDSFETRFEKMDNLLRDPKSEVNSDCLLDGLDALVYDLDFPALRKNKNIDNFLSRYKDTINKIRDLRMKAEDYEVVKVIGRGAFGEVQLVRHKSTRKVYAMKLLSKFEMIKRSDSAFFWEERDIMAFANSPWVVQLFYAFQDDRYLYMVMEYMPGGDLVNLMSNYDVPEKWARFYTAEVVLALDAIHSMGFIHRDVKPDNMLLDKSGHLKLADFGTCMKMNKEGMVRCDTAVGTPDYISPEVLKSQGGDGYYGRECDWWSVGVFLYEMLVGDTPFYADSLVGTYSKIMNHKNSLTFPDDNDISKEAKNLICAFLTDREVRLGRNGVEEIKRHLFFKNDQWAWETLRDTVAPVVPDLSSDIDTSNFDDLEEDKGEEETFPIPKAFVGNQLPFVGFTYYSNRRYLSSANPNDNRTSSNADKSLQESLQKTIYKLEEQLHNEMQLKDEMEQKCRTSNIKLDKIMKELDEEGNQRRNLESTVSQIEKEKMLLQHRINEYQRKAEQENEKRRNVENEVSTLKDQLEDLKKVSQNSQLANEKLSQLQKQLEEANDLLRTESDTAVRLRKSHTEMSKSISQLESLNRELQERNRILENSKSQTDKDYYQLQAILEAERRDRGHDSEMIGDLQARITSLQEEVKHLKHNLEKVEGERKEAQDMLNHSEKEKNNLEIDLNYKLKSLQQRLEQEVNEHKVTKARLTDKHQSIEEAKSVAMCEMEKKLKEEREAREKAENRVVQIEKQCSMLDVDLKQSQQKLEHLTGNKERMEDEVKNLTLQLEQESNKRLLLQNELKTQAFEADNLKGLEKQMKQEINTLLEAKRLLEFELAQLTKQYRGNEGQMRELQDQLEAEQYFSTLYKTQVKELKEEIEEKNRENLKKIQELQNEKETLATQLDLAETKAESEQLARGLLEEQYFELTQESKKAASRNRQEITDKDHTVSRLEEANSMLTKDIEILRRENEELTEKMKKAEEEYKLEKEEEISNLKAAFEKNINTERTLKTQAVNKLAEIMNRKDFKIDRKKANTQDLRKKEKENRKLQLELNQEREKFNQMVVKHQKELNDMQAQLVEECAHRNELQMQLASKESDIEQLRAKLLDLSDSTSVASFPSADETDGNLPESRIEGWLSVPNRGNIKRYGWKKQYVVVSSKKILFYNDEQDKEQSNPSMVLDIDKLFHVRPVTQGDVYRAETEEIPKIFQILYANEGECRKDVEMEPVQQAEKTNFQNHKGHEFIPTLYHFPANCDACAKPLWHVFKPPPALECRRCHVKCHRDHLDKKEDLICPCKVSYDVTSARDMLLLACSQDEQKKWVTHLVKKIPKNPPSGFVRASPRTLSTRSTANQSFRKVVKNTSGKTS
Sequence of UniProt P54646 (P54646 whole entry, looked up): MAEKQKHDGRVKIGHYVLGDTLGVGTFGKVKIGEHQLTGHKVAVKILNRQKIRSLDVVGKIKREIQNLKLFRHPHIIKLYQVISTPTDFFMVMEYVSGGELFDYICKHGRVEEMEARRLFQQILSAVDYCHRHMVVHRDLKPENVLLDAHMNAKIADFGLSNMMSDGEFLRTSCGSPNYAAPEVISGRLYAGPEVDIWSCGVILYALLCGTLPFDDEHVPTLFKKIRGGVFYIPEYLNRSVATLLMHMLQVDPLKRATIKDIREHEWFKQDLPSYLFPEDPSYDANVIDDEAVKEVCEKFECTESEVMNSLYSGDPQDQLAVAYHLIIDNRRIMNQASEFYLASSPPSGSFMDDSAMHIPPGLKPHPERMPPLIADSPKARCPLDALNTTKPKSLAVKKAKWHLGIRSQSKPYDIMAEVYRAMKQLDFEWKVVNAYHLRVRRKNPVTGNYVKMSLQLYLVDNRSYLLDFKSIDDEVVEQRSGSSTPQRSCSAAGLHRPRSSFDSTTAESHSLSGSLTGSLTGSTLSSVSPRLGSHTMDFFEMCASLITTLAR

Compound	inhibition [1]	inhibition [2]	inhibition [3]	inhibition [4]	inhibition [5]	inhibition [6]	inhibition [7]	inhibition [8]	inhibition [9]	inhibition [10]	inhibition [11]	inhibition [12]	inhibition [13]	inhibition [14]	inhibition [15]	inhibition [16]	inhibition [17]	inhibition [18]	inhibition [19]	inhibition [20]
COc1ccccc1Oc1nccc(-c2c(-c3ccc(F)cc3)ncn2C2CCNCC2)n1	6.23%	3.92%	7.66%	1.31%	3.85%	-0.14%	2.74%	3.32%	4.89%	0.85%	1.52%	3.66%	2.63%	2.1%	3.65%	2.78%	3.09%	7.3%	4.16%	
O=C1NC(=O)C(c2ccccc2)=C1Nc1ccccc1	0.95%	3.61%	4.65%	3.28%	10.2%	2.84%	12.1%	4.11%	9.99%	1.85%	9.47%	4.37%	3.66%	2.79%	1.97%	5.81%	4.95%	6.83%	3.83%	6.27%
Cc1cccc(Oc2nccc(-c3c(-c4ccc(F)cc4)ncn3C3CCNCC3)n2)c1C	4.68%	2.54%	4.11%	1.47%	2.71%	1.59%	2.56%	2.62%	4.17%	0.82%	0.92%	2.84%	1.23%	2.96%	1.41%	2.42%	3.33%	4.68%	4.56%	3.03%
O=C1NC(=O)C(c2ccccc2Cl)=C1Nc1cc(Cl)c(O)c(Cl)c1	2.31%	3.01%	7.02%	0.93%	3.76%	0.19%	1.69%	1.27%	2.74%	0.39%	0.63%	2.07%	3%	5.23%	5.89%	3.81%	1.96%	4.1%	-0.82%	5.19%
O=C1NC(=O)C(c2cccc([N+](=O)[O-])c2)=C1Nc1cc(Cl)c(O)c(Cl)c1	-0.21%	1.79%	0.12%	0.63%	3.34%	2.73%	9.07%	1.76%	10.8%	1.82%	11.2%	1.37%	2.32%	-0.94%	-0.41%	1.23%	2.33%	5.09%	1.6%	0.49%
Fc1ccc(-c2ncn(C3CCNCC3)c2-c2ccnc(Oc3cccc(F)c3)n2)cc1	4.1%	4.09%	4.98%	3.06%	2.03%	-0.53%	2.66%	3.43%	4.59%	1.37%	2.84%	2.23%	4%	3.79%	3.65%	4.85%	1.39%	3.97%	5.76%	3.62%
CC(C)(C)c1ccc(Oc2nccc(-c3c(-c4ccc(F)cc4)ncn3C3CCNCC3)n2)cc1	4.05%	2.97%	3.48%	0.88%	0.99%	1.1%	1.87%	1.55%	2.44%	0.79%	0.57%	1.84%	-0.53%	2.76%	1.51%	1.86%	2.05%	4.58%	4.13%	1.38%
